Reference: article PMC4068158
Results are given in words; binding and its absence hold for the method and conditions named. Binding seen in cells or lysates may run through a third protein. Some binding calls cover weakened binding; strength is not graded here.

Amino acid sequences for entries named in this document (tags omitted). A change or cut given only in a name is not applied to a line headed by its entry.
UniProt P61266: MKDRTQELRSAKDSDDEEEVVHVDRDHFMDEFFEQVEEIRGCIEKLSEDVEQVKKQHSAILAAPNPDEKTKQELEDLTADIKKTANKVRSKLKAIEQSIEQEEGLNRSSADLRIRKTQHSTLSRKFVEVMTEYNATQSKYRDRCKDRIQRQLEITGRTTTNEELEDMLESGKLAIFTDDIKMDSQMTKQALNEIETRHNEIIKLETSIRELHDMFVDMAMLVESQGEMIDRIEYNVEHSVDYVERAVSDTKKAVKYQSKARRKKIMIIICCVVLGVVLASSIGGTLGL
UniProt O95292: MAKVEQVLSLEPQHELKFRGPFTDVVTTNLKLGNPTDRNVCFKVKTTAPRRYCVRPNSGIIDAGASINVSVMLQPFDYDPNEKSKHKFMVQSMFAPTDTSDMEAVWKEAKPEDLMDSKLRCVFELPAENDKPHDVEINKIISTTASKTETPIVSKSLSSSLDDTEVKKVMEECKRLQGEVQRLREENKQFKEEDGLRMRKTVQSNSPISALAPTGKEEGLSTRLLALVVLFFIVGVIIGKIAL

Tests used:
[1] = target: Flag-STX1B F32A-F33A (human) (UniProt P61266); experiment: co-IP; Flag-STX1A or Flag-STX1B, wild type or mutant, immunoprecipitated; VAPB by immunoblot; cells not stated (Figure S2C)
[2] = target: Flag-STX1B wild type (human) (UniProt P61266); experiment: as above

With “endogenous VAPB (human cells) (from UniProt O95292 1-243)” the binding [1] was “binds” and the binding [2] was “binds”.
